In the supplement of paper PMC11125491:
± gives the standard deviation of the averaged measurements. Growth of baker's yeast expressing single-residue variants of Pneumocystis jirovecii dihydrofolate reductase in 8.8 or 44 µM methotrexate (about 75% and 90% inhibition of the wild type). Selection coefficient per generation; 0 = like wild type, above 0 = less sensitive, below 0 = more sensitive or loss of function. No active / inactive call per row; the paper calls resistant above 0.220 (8.8 µM) or 0.243 (44 µM) together with a significance test. At 44 µM about 15% of codons end with one read or none, so the lowest values are floors (replicate rank correlation 0.74; 0.94 at 8.8 µM).

B1: UniProt A0EPZ9; numbered along this chain (parent)
chain: MDWQKSLTLIVALTLSRGIGLKNDLPWKLKSDMMFFSRVTSGLLVTRSTGQMNVVLMGRKTWESLPAHSRPLKNRINVVISRQEVLDLGGGAYHARSLDDALALLSQIYDSTSKIQLNRVFVIGGGELCKAAMEHSRLNRIIATVIHNEVDCDVFFPIDFRSSQSCLPWRKQDHSVLEAWVGSKVPQGKINENGFIYEFEMWIRDI

Variants of: B1
Assay: selection coefficient against synonymous wild-type codons (log2 per generation); higher = faster growth than wild type
Conditions: with Saccharomyces cerevisiae carrying the variant on a plasmid
Protocol: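 Pooled growth of yeast carrying single-residue variants of P. jirovecii dihydrofolate reductase (own DFR1 gene intact), two passages at 30 °C, three cultures, sequenced before and after. Codons with under 15 starting reads are left out; codons of one change are averaged.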

Variant: I142L
- selection coefficient against synonymous wild-type codons (log2) (methotrexate 8.8 µM): -0.0423 ± 0.059
- selection coefficient against synonymous wild-type codons (log2) (methotrexate 44 µM): 0.0628 ± 0.19

Variant: I142M
- selection coefficient against synonymous wild-type codons (log2) (methotrexate 8.8 µM): 0.0728 ± 0.025
- selection coefficient against synonymous wild-type codons (log2) (methotrexate 44 µM): 0.212 ± 0.043

Variant: I142N
- selection coefficient against synonymous wild-type codons (log2) (methotrexate 8.8 µM): -0.474 ± 0.083
- selection coefficient against synonymous wild-type codons (log2) (methotrexate 44 µM): -0.172 ± 0.06

Variant: I142P
- selection coefficient against synonymous wild-type codons (log2) (methotrexate 8.8 µM): -0.745 ± 0.1
- selection coefficient against synonymous wild-type codons (log2) (methotrexate 44 µM): -0.232 ± 0.1

Variant: I142Q
- selection coefficient against synonymous wild-type codons (log2) (methotrexate 8.8 µM): -0.189 ± 0.059
- selection coefficient against synonymous wild-type codons (log2) (methotrexate 44 µM): 0.0287 ± 0.013

Variant: I142R
- selection coefficient against synonymous wild-type codons (log2) (methotrexate 8.8 µM): -0.335 ± 0.19
- selection coefficient against synonymous wild-type codons (log2) (methotrexate 44 µM): 0.161 ± 0.24

Variant: I142S
- selection coefficient against synonymous wild-type codons (log2) (methotrexate 8.8 µM): -0.515 ± 0.2
- selection coefficient against synonymous wild-type codons (log2) (methotrexate 44 µM): -0.0675 ± 0.24

Variant: I142T
- selection coefficient against synonymous wild-type codons (log2) (methotrexate 8.8 µM): -0.466 ± 0.17
- selection coefficient against synonymous wild-type codons (log2) (methotrexate 44 µM): -0.196 ± 0.091

Variant: I142V
- selection coefficient against synonymous wild-type codons (log2) (methotrexate 8.8 µM): -0.0564 ± 0.041
- selection coefficient against synonymous wild-type codons (log2) (methotrexate 44 µM): 0.127 ± 0.24

Variant: I142W
- selection coefficient against synonymous wild-type codons (log2) (methotrexate 8.8 µM): 0.839 ± 0.024
- selection coefficient against synonymous wild-type codons (log2) (methotrexate 44 µM): 1.41 ± 0.078

Variant: I142Y
- selection coefficient against synonymous wild-type codons (log2) (methotrexate 8.8 µM): 0.371 ± 0.027
- selection coefficient against synonymous wild-type codons (log2) (methotrexate 44 µM): 0.65 ± 0.081

Variant: A143C
- selection coefficient against synonymous wild-type codons (log2) (methotrexate 8.8 µM): 0.112 ± 0.0038
- selection coefficient against synonymous wild-type codons (log2) (methotrexate 44 µM): 0.167 ± 0.14

Variant: A143D
- selection coefficient against synonymous wild-type codons (log2) (methotrexate 8.8 µM): -0.578 ± 0.074
- selection coefficient against synonymous wild-type codons (log2) (methotrexate 44 µM): -0.232 ± 0.093

Variant: A143E
- selection coefficient against synonymous wild-type codons (log2) (methotrexate 8.8 µM): -0.492 ± 0.086
- selection coefficient against synonymous wild-type codons (log2) (methotrexate 44 µM): -0.282 ± 0.062

Variant: A143F
- selection coefficient against synonymous wild-type codons (log2) (methotrexate 8.8 µM): -0.133 ± 0.097
- selection coefficient against synonymous wild-type codons (log2) (methotrexate 44 µM): 0.148 ± 0.74

Variant: A143G
- selection coefficient against synonymous wild-type codons (log2) (methotrexate 8.8 µM): -0.0193 ± 0.026
- selection coefficient against synonymous wild-type codons (log2) (methotrexate 44 µM): -0.0434 ± 0.13

Variant: A143H
- selection coefficient against synonymous wild-type codons (log2) (methotrexate 8.8 µM): -0.00321 ± 0.1
- selection coefficient against synonymous wild-type codons (log2) (methotrexate 44 µM): -0.079 ± 0.06

Variant: A143I
- selection coefficient against synonymous wild-type codons (log2) (methotrexate 8.8 µM): 0.0167 ± 0.013
- selection coefficient against synonymous wild-type codons (log2) (methotrexate 44 µM): 0.029 ± 0.087

Variant: A143K
- selection coefficient against synonymous wild-type codons (log2) (methotrexate 8.8 µM): -0.0203 ± 0.05
- selection coefficient against synonymous wild-type codons (log2) (methotrexate 44 µM): -0.177 ± 0.1

Variant: A143L
- selection coefficient against synonymous wild-type codons (log2) (methotrexate 8.8 µM): -0.0815 ± 0.034
- selection coefficient against synonymous wild-type codons (log2) (methotrexate 44 µM): -0.166 ± 0.13

Variant: A143M
- selection coefficient against synonymous wild-type codons (log2) (methotrexate 8.8 µM): -0.0424 ± 0.014
- selection coefficient against synonymous wild-type codons (log2) (methotrexate 44 µM): -0.0415 ± 0.16

Variant: A143N
- selection coefficient against synonymous wild-type codons (log2) (methotrexate 8.8 µM): -0.0902 ± 0.055
- selection coefficient against synonymous wild-type codons (log2) (methotrexate 44 µM): -0.133 ± 0.23

Variant: A143P
- selection coefficient against synonymous wild-type codons (log2) (methotrexate 8.8 µM): -0.428 ± 0.084
- selection coefficient against synonymous wild-type codons (log2) (methotrexate 44 µM): -0.263 ± 0.095

Variant: A143Q
- selection coefficient against synonymous wild-type codons (log2) (methotrexate 8.8 µM): -0.132 ± 0.026
- selection coefficient against synonymous wild-type codons (log2) (methotrexate 44 µM): 0.0133 ± 0.034

Variant: A143R
- selection coefficient against synonymous wild-type codons (log2) (methotrexate 8.8 µM): 0.0731 ± 0.029
- selection coefficient against synonymous wild-type codons (log2) (methotrexate 44 µM): 0.00783 ± 0.072

Variant: A143S
- selection coefficient against synonymous wild-type codons (log2) (methotrexate 8.8 µM): -0.0897 ± 0.04
- selection coefficient against synonymous wild-type codons (log2) (methotrexate 44 µM): -0.103 ± 0.1

Variant: A143T
- selection coefficient against synonymous wild-type codons (log2) (methotrexate 8.8 µM): 0.0678 ± 0.046
- selection coefficient against synonymous wild-type codons (log2) (methotrexate 44 µM): 0.0908 ± 0.11

Variant: A143V
- selection coefficient against synonymous wild-type codons (log2) (methotrexate 8.8 µM): -0.0163 ± 0.062
- selection coefficient against synonymous wild-type codons (log2) (methotrexate 44 µM): 0.0808 ± 0.095

Variant: A143W
- selection coefficient against synonymous wild-type codons (log2) (methotrexate 8.8 µM): 0.0273 ± 0.0079
- selection coefficient against synonymous wild-type codons (log2) (methotrexate 44 µM): 0.0969 ± 0.057

Variant: A143Y
- selection coefficient against synonymous wild-type codons (log2) (methotrexate 8.8 µM): 0.033 ± 0.056
- selection coefficient against synonymous wild-type codons (log2) (methotrexate 44 µM): -0.00625 ± 0.15

Variant: T144A
- selection coefficient against synonymous wild-type codons (log2) (methotrexate 8.8 µM): 0.211 ± 0.021
- selection coefficient against synonymous wild-type codons (log2) (methotrexate 44 µM): 0.46 ± 0.35

Variant: T144C
- selection coefficient against synonymous wild-type codons (log2) (methotrexate 8.8 µM): 0.401 ± 0.011
- selection coefficient against synonymous wild-type codons (log2) (methotrexate 44 µM): 0.54 ± 0.041

Variant: T144D
- selection coefficient against synonymous wild-type codons (log2) (methotrexate 8.8 µM): 0.0624 ± 0.041
- selection coefficient against synonymous wild-type codons (log2) (methotrexate 44 µM): 0.305 ± 0.04

Variant: T144E
- selection coefficient against synonymous wild-type codons (log2) (methotrexate 8.8 µM): -0.668 ± 0.091
- selection coefficient against synonymous wild-type codons (log2) (methotrexate 44 µM): -0.215 ± 0.081

Variant: T144F
- selection coefficient against synonymous wild-type codons (log2) (methotrexate 8.8 µM): -0.604 ± 0.03
- selection coefficient against synonymous wild-type codons (log2) (methotrexate 44 µM): -0.401 ± 0.056

Variant: T144G
- selection coefficient against synonymous wild-type codons (log2) (methotrexate 8.8 µM): 0.221 ± 0.035
- selection coefficient against synonymous wild-type codons (log2) (methotrexate 44 µM): 0.44 ± 0.044

Variant: T144H
- selection coefficient against synonymous wild-type codons (log2) (methotrexate 8.8 µM): -0.681 ± 0.21
- selection coefficient against synonymous wild-type codons (log2) (methotrexate 44 µM): -0.321 ± 0.041

Variant: T144I
- selection coefficient against synonymous wild-type codons (log2) (methotrexate 8.8 µM): -0.312 ± 0.057
- selection coefficient against synonymous wild-type codons (log2) (methotrexate 44 µM): 0.176 ± 0.071

Variant: T144K
- selection coefficient against synonymous wild-type codons (log2) (methotrexate 8.8 µM): -0.73 ± 0.043
- selection coefficient against synonymous wild-type codons (log2) (methotrexate 44 µM): -0.227 ± 0.059

Variant: T144L
- selection coefficient against synonymous wild-type codons (log2) (methotrexate 8.8 µM): -0.672 ± 0.15
- selection coefficient against synonymous wild-type codons (log2) (methotrexate 44 µM): -0.347 ± 0.15

Variant: T144M
- selection coefficient against synonymous wild-type codons (log2) (methotrexate 8.8 µM): -0.412 ± 0.037
- selection coefficient against synonymous wild-type codons (log2) (methotrexate 44 µM): 0.0129 ± 0.072

Variant: T144N
- selection coefficient against synonymous wild-type codons (log2) (methotrexate 8.8 µM): 0.22 ± 0.28
- selection coefficient against synonymous wild-type codons (log2) (methotrexate 44 µM): 0.393 ± 0.34

Variant: T144P
- selection coefficient against synonymous wild-type codons (log2) (methotrexate 8.8 µM): -0.476 ± 0.12
- selection coefficient against synonymous wild-type codons (log2) (methotrexate 44 µM): 0.353 ± 0.028

Variant: T144Q
- selection coefficient against synonymous wild-type codons (log2) (methotrexate 8.8 µM): -0.674 ± 0.12
- selection coefficient against synonymous wild-type codons (log2) (methotrexate 44 µM): -0.447 ± 0.045

Variant: T144R
- selection coefficient against synonymous wild-type codons (log2) (methotrexate 8.8 µM): -0.748 ± 0.16
- selection coefficient against synonymous wild-type codons (log2) (methotrexate 44 µM): -0.411 ± 0.04

Variant: T144S
- selection coefficient against synonymous wild-type codons (log2) (methotrexate 8.8 µM): -0.0616 ± 0.035
- selection coefficient against synonymous wild-type codons (log2) (methotrexate 44 µM): -0.077 ± 0.11

Variant: T144V
- selection coefficient against synonymous wild-type codons (log2) (methotrexate 8.8 µM): 0.246 ± 0.028
- selection coefficient against synonymous wild-type codons (log2) (methotrexate 44 µM): 0.466 ± 0.033

Variant: T144W
- selection coefficient against synonymous wild-type codons (log2) (methotrexate 8.8 µM): -0.572 ± 0.079
- selection coefficient against synonymous wild-type codons (log2) (methotrexate 44 µM): -0.364 ± 0.038

Variant: T144Y
- selection coefficient against synonymous wild-type codons (log2) (methotrexate 8.8 µM): -0.75 ± 0.11
- selection coefficient against synonymous wild-type codons (log2) (methotrexate 44 µM): -0.4 ± 0.1

Variant: V145A
- selection coefficient against synonymous wild-type codons (log2) (methotrexate 8.8 µM): -0.0852 ± 0.026
- selection coefficient against synonymous wild-type codons (log2) (methotrexate 44 µM): -0.167 ± 0.15

Variant: V145C
- selection coefficient against synonymous wild-type codons (log2) (methotrexate 8.8 µM): 0.0109 ± 0.00048
- selection coefficient against synonymous wild-type codons (log2) (methotrexate 44 µM): -0.00226 ± 0.084

Variant: V145D
- selection coefficient against synonymous wild-type codons (log2) (methotrexate 8.8 µM): -0.0762 ± 0.059
- selection coefficient against synonymous wild-type codons (log2) (methotrexate 44 µM): -0.0366 ± 0.048

Variant: V145E
- selection coefficient against synonymous wild-type codons (log2) (methotrexate 8.8 µM): -0.0421 ± 0.046
- selection coefficient against synonymous wild-type codons (log2) (methotrexate 44 µM): -0.0785 ± 0.051

Variant: V145F
- selection coefficient against synonymous wild-type codons (log2) (methotrexate 8.8 µM): -0.1 ± 0.022
- selection coefficient against synonymous wild-type codons (log2) (methotrexate 44 µM): -0.113 ± 0.12

Variant: V145G
- selection coefficient against synonymous wild-type codons (log2) (methotrexate 8.8 µM): 0.012 ± 0.031
- selection coefficient against synonymous wild-type codons (log2) (methotrexate 44 µM): 0.0892 ± 0.23

Variant: V145H
- selection coefficient against synonymous wild-type codons (log2) (methotrexate 8.8 µM): 0.149 ± 0.053
- selection coefficient against synonymous wild-type codons (log2) (methotrexate 44 µM): 0.175 ± 0.07

Variant: V145I
- selection coefficient against synonymous wild-type codons (log2) (methotrexate 8.8 µM): -0.0377 ± 0.086
- selection coefficient against synonymous wild-type codons (log2) (methotrexate 44 µM): -0.0592 ± 0.2

Variant: V145K
- selection coefficient against synonymous wild-type codons (log2) (methotrexate 8.8 µM): 0.23 ± 0.017
- selection coefficient against synonymous wild-type codons (log2) (methotrexate 44 µM): 0.31 ± 0.07
